# PubChem BioAssay AID720708 (National Center for Advancing Translational Sciences (NCATS), 2013)
# The campaign covered roughly 360,000 compounds. About 660 (0.18%) were called active. Inconclusive means that the source gave no clear call. Such entries were picked first, then a sample of the others. Calls follow the shape of the dose curve; as a rule, active = well fitted inhibition curve with a large enough effect; inconclusive = small, poorly fitted or top-dose-only effect; inactive = no such curve, though single readings can be large or run the other way. Potencies of inconclusive entries are left out as doubtful fits.
# Target: Rap guanine nucleotide exchange factor 4 (Homo sapiens) (UniProt Q8WZA2)
# Assay: qHTS for Antagonist of cAMP-regulated guanine nucleotide exchange factor 2 (EPAC2): primary screen; also: nearly all actives have a fitted effect of over 45% in size
# Settings: EPAC2 GEF exchange of Rap1B-BODIPY-GDP, fluorescence; series mostly up to 114 µM
# Potency is read from the fitted curve at half-maximal effect; tags tell the direction and shape of the fitted curve.
# Chain of UniProt Q8WZA2 (Q8WZA2 whole entry, looked up): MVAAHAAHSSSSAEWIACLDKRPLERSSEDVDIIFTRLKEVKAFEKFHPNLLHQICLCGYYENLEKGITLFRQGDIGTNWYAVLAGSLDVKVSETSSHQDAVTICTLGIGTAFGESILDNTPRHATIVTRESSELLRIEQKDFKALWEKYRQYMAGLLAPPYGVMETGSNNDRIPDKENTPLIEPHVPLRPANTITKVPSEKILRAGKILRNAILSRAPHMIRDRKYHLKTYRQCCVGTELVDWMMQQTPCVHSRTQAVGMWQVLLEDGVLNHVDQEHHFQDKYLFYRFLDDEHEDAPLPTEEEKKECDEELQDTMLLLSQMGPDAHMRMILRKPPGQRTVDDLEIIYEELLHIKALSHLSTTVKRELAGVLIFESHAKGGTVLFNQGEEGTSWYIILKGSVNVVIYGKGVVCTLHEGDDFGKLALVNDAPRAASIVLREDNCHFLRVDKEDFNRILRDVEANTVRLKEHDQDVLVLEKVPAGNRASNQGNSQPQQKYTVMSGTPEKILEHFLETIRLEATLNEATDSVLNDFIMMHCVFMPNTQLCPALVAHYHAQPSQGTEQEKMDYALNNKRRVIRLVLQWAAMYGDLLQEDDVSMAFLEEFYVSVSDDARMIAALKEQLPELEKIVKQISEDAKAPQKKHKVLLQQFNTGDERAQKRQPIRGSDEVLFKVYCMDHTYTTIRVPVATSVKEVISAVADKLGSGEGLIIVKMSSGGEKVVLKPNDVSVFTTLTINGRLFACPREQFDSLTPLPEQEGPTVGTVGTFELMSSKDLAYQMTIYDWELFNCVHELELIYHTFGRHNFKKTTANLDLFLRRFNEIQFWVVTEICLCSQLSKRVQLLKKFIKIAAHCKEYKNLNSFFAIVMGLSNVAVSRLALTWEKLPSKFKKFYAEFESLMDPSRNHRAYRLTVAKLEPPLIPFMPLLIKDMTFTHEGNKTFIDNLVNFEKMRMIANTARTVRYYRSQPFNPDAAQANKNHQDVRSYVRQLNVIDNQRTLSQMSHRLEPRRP
row,SMILES,Potency
1,CCCN(CC(=O)Nc1ccccc1C)C(=O)CCN1C(=O)c2cccc([N+](=O)[O-])c2C1=O,"inconclusive [inhibitor, full curve, poor fit]"
2,Cc1csc(NC(=O)CSc2nccn2Cc2ccco2)n1,"inconclusive [inhibitor, single point]"
3,COc1ccc(S(=O)(=O)N(CC(=O)N/N=C/c2cccs2)c2ccc(C)cc2)cc1OC,inactive
4,Cc1ccc([C@H]2C(C(=O)O)=CC[C@@H](c3ccc(Cl)c(Cl)c3)N2S(=O)(=O)c2ccc(C)cc2)cc1,"inconclusive [inhibitor, partial curve]"
5,CC(=O)N[C@@H](Cc1c[nH]c2ccccc12)C(=O)OCC(=O)Nc1cc(C)on1,inactive
6,CC[n+]1c(/C=C2\Sc3ccccc3N2C)ccc2cccc(C)c21,inactive
7,COC(=O)C1=C(C)N(c2ccc(Cl)cc2)/C(=C/c2ccc(O)cc2)C1=O,"inconclusive [inhibitor, single point]"
8,O=c1[nH]c2ccc(S(=O)(=O)Nc3ccc(Cl)cc3)cc2o1,inactive
9,Cc1cc(C)c2nc(N3C(=O)C(O)=C(C(=O)c4ccco4)C3c3ccco3)sc2c1 (stereo not drawn),inactive
10,COCCN(Cc1ccccc1)C(=O)c1ccc(C(=O)c2ccccc2)cc1,"inconclusive [inhibitor, partial curve]"
11,CCOC(=O)c1ccc(NC(=S)N2CCN(C)CC2)cc1,inactive
12,Nc1ccc(S(=O)(=O)Nc2nccs2)cc1N=Nc1ccccc1[N+](=O)[O-],active: 10 µM
13,CCCC(O)(c1ccc(CC)cc1)C(CN1CCOCC1)c1ccccc1 (stereo not drawn),"inconclusive [inhibitor, partial curve]"
14,Cn1c(=O)n(C)c2cc([N+](=O)[O-])c(N3CCN(S(C)(=O)=O)CC3)cc21,"inconclusive [inhibitor, partial curve]"
15,N#C/C(=C\c1ccc(N2CCOCC2)o1)c1nc2ccccc2[nH]1,inactive
16,CC(=O)NC(c1cccc(F)c1)c1nc(-c2ccccc2C)cs1 (stereo not drawn),"inconclusive [inhibitor, full curve, poor fit]"
17,CCCCCCC(C)OC(=O)Nc1cccc2ccccc12 (stereo not drawn),"inconclusive [inhibitor, partial curve]"
18,Cc1cccc(C(=O)NC(=S)NNC(=O)Cc2ccccc2)c1,inactive
19,Cc1cc(C)n2nc(SCC(=O)N3CCc4ccccc43)nc2n1,inactive
20,C/C(Cc1ccccc1)=N\NC(=O)CNC(=O)/C=C\c1ccccc1,"inconclusive [inhibitor, full curve, poor fit]"
21,CC1(C(=O)NS(=O)(=O)c2ccc(Cl)s2)CCN1C(=O)C1(c2ccc(Cl)cc2)CCC1 (stereo not drawn),"inconclusive [inhibitor, full curve]"
22,CCOc1ccc(N(CC(=O)OC)S(=O)(=O)c2ccc3c(c2)n(C)c(=O)c(=O)n3C)cc1,"inconclusive [inhibitor, partial curve]"

row,SMILES,Potency
1,COC(=O)c1ccc(COc2cc(C)ccc2C)o1,"inconclusive [inhibitor, partial curve]"
2,O=C(NCc1cccc(F)c1)c1cccc2c1C(=O)c1ccc(N3CCC(Cc4ccccc4)CC3)cc1S2(=O)=O,inactive
3,Cc1ccc2nc(-c3ccco3)c(Cc3cccc(Cl)c3)n2c1,"inconclusive [inhibitor, full curve]"
4,CCOC(=O)c1cc(-c2nnc(SCC(=O)Nc3ccc(F)cc3)o2)c(C)nc1C,"inconclusive [inhibitor, single point]"
5,COc1ccc(-c2csc(Nc3ccc(S(=O)(=O)Nc4cc(C)on4)cc3)n2)cc1C,"inconclusive [inhibitor, partial curve]"
6,COc1ccc(S(=O)(=O)N2CCCCC2)cc1N(C)S(=O)(=O)c1ccccc1,"inconclusive [inhibitor, partial curve]"
7,COc1ccc(-c2nc(N)nc(C(F)(F)F)c2-c2ccccc2OC)c(O)c1,"inconclusive [inhibitor, partial curve]"
8,Nc1ccc(C(=O)Nc2ccc(Nc3ccncc3)cc2)cc1,inactive
9,Cc1ccc(-c2nc(N)sc2-c2ccc(C)cc2)cc1,"inconclusive [inhibitor, partial curve]"
10,CNC(=S)N(C)[C@H]1c2c(ccc3ccccc23)OC[C@H]1CO,"inconclusive [inhibitor, partial curve]"
11,C=CCSC1=N/C(=C/c2ccsc2)C(=O)N1c1ccccc1,"inconclusive [inhibitor, partial curve]"
12,Oc1ccc(C2C=C(c3ccc(F)cc3)Nc3ncnn32)cc1 (stereo not drawn),inactive
13,O=[N+]([O-])c1ncccc1OCc1ccccc1Br,"inconclusive [inhibitor, partial curve, poor fit]"
14,O=C(N/N=C\c1ccccc1)c1ccccc1-n1cccc1,inactive
15,CCOC(=O)N1CCC(Nc2ccc(N3C(=O)C4CCCCC4C3=O)cc2[N+](=O)[O-])CC1 (stereo not drawn),"inconclusive [inhibitor, single point]"
16,CCOC(=O)C1=CCC(c2ccccc2)N(S(=O)(=O)c2ccccc2)C1 (stereo not drawn),"inconclusive [inhibitor, partial curve]"
17,C/C(=N\NS(=O)(=O)c1ccccc1)c1cc(Cl)cc(Cl)c1O,"inconclusive [inhibitor, full curve]"
18,CCN(Cc1nc(-c2ccccc2)no1)C(=O)COc1cccc(OC)c1,"inconclusive [inhibitor, single point]"
19,O=C(NC1CCCC1)C(c1cccnc1)N(C(=O)c1csnn1)c1ccccc1 (stereo not drawn),"inconclusive [inhibitor, single point]"
20,COc1ccc(C(C)(O)c2nc(-c3cccc(F)c3)cs2)cc1 (stereo not drawn),"inconclusive [inhibitor, partial curve]"
21,CCCCc1c(-c2cccc(Cl)c2)ncn1CCc1ccccc1OC,"inconclusive [inhibitor, partial curve]"
